# Reference: the supplement of paper PMC8728848
# The list shows a part of the results.
# B1: GNL (Galanthus nivalis) (protein)
# chain: MGHHHHHHHHYGTLENGHWLMVGMSIFSKDRTVELRMQDDGKLAIYYNDHCAWQSTAQQVNNAKGAVMQGDGNFCIYDKNGKATWHTNTAAPSGDSHTFVSVQDDGNLVLYKNNGATPIWSSKSNK
# What was measured:
# Experiment in all cases: glycan array binding signal (z-score within array); higher = stronger binding
# Details in all cases: glycan notation: IUPAC condensed, linker removed
# Neu5Ac(a2-8)Neu5Ac = target: Neu5Ac(a2-8)Neu5Ac
# Procedure, shortened: (§1)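 The binding signal is a Z-score computed within each array. Data were drawn from 3228 arrays in the Consortium for Functional Glycomics database, restricted to those with a known protein sequence. Scores were averaged over arrays of the same protein sequence at different concentrations or buffers, and over linkers, and negative values can be taken as non-binding.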
# [1] = target: Neu5Ac(a2-8)Neu5Ac(a2-3)Gal(b1-3)GalNAc(b1-4)[Neu5Ac(a2-3)]Gal(b1-4)Glc
# Procedure, shortened: as §1
# [2] = target: Neu5Ac(a2-8)Neu5Ac(a2-3)Gal(b1-3)GalNAc(b1-4)[Neu5Ac(a2-8)Neu5Ac(a2-3)]Gal(b1-4)Glc
# Procedure, shortened: as §1
# [3] = target: Neu5Ac(a2-8)Neu5Ac(a2-3)Gal(b1-4)Glc
# Procedure, shortened: as §1
# [4] = target: Neu5Ac(a2-8)Neu5Ac(a2-3)Gal(b1-4)GlcNAc
# Procedure, shortened: as §1
# [5] = target: Neu5Ac(a2-8)Neu5Ac(a2-3)[Gal(b1-3)GalNAc(b1-4)]Gal(b1-4)Glc
# Procedure, shortened: as §1
# [6] = target: Neu5Ac(a2-8)Neu5Ac(a2-3)[GalNAc(b1-4)]Gal(b1-4)Glc
# Procedure, shortened: as §1
# [7] = target: Neu5Ac(a2-8)Neu5Ac(a2-8)Neu5Ac
# Procedure, shortened: as §1
# [8] = target: Neu5Ac(a2-8)Neu5Ac(a2-8)Neu5Ac(a2-3)Gal(b1-4)Glc
# Procedure, shortened: as §1
# [9] = target: Neu5Ac(a2-8)Neu5Ac(a2-8)Neu5Ac(a2-3)[Gal(b1-3)GalNAc(b1-4)]Gal(b1-4)Glc
# Procedure, shortened: as §1
# [10] = target: Neu5Ac(a2-8)Neu5Ac(a2-8)Neu5Ac(a2-3)[GalNAc(b1-4)]Gal(b1-4)Glc
# Procedure, shortened: as §1
# [11] = target: Neu5Ac(a2-8)Neu5Ac(a2-8)Neu5Ac(a2-8)Neu5Ac(a2-3)[GalNAc(b1-4)]Gal(b1-4)Glc
# Procedure, shortened: as §1
# [12] = target: Neu5Ac(a2-8)Neu5Gc(a2-3)Gal(b1-4)GlcNAc
# Procedure, shortened: as §1
# [13] = target: Neu5Ac(b2-6)Gal(b1-4)GlcNAc
# Procedure, shortened: as §1
# Neu5Ac(b2-6)GalNAc = target: Neu5Ac(b2-6)GalNAc
# Procedure, shortened: as §1
# [14] = target: Neu5Ac9Ac(a2-3)Gal(b1-3)GlcNAc
# Procedure, shortened: as §1
# [15] = target: Neu5Ac9Ac(a2-3)Gal(b1-4)GlcNAc
# Procedure, shortened: as §1
# [16] = target: Neu5Ac9Ac(a2-6)Gal(b1-4)GlcNAc
# Procedure, shortened: as §1
# [17] = target: Neu5Gc(a2-3)Gal(b1-3)GlcNAc
# Procedure, shortened: as §1
# [18] = target: Neu5Gc(a2-3)Gal(b1-3)[Fuc(a1-4)]GlcNAc
# Procedure, shortened: as §1
# Neu5Gc(a2-3)Gal(b1-4)Glc = target: Neu5Gc(a2-3)Gal(b1-4)Glc
# Procedure, shortened: as §1
# [19] = target: Neu5Gc(a2-3)Gal(b1-4)GlcNAc
# Procedure, shortened: as §1
# [20] = target: Neu5Gc(a2-3)Gal(b1-4)GlcNAc(b1-3)Gal(b1-4)GlcNAc(b1-2)Man(a1-3)[Neu5Gc(a2-3)Gal(b1-4)GlcNAc(b1-3)Gal(b1-4)GlcNAc(b1-2)Man(a1-6)]Man(b1-4)GlcNAc(b1-4)GlcNAc
# Procedure, shortened: as §1
# [21] = target: Neu5Gc(a2-3)Gal(b1-4)[Fuc(a1-3)]GlcNAc
# Procedure, shortened: as §1
# [22] = target: Neu5Gc(a2-6)Gal(b1-4)GlcNAc
# Procedure, shortened: as §1
# Neu5Gc(a2-6)GalNAc = target: Neu5Gc(a2-6)GalNAc
# Procedure, shortened: as §1
# [23] = target: Neu5Gc(a2-8)Neu5Ac(a2-3)Gal(b1-4)GlcNAc
# Procedure, shortened: as §1
# [24] = target: Neu5Gc(a2-8)Neu5Gc(a2-3)Gal(b1-4)GlcNAc
# Procedure, shortened: as §1
# [25] = target: Neu5Gc(a2-8)Neu5Gc(a2-3)Gal(b1-4)GlcNAc(b1-3)Gal(b1-4)GlcNAc
# Procedure, shortened: as §1
# [26] = target: Neu5Gc(a2-8)Neu5Gc(a2-6)Gal(b1-4)GlcNAc
# Procedure, shortened: as §1
# [27] = target: Neu5Gc(b2-6)Gal(b1-4)GlcNAc
# Procedure, shortened: as §1
binder,measurement,setting,value
B1,glycan array binding signal (z-score),Neu5Ac(a2-8)Neu5Ac,-0.189
same,glycan array binding signal (z-score),[1],-0.285
same,glycan array binding signal (z-score),[2],-0.164
same,glycan array binding signal (z-score),[3],-0.235
same,glycan array binding signal (z-score),[4],-0.236
same,glycan array binding signal (z-score),[5],-0.165
same,glycan array binding signal (z-score),[6],-0.133
same,glycan array binding signal (z-score),[7],-0.183
same,glycan array binding signal (z-score),[8],-0.273
same,glycan array binding signal (z-score),[9],-0.228
same,glycan array binding signal (z-score),[10],-0.162
same,glycan array binding signal (z-score),[11],-0.297
same,glycan array binding signal (z-score),[12],-0.208
same,glycan array binding signal (z-score),[13],-0.268
same,glycan array binding signal (z-score),Neu5Ac(b2-6)GalNAc,-0.311
same,glycan array binding signal (z-score),[14],-0.295
same,glycan array binding signal (z-score),[15],-0.239
same,glycan array binding signal (z-score),[16],-0.211
same,glycan array binding signal (z-score),[17],-0.289
same,glycan array binding signal (z-score),[18],-0.257
same,glycan array binding signal (z-score),Neu5Gc(a2-3)Gal(b1-4)Glc,-0.224
same,glycan array binding signal (z-score),[19],-0.202
same,glycan array binding signal (z-score),[20],0.079
same,glycan array binding signal (z-score),[21],-0.282
same,glycan array binding signal (z-score),[22],-0.213
same,glycan array binding signal (z-score),Neu5Gc(a2-6)GalNAc,-0.125
same,glycan array binding signal (z-score),[23],-0.26
same,glycan array binding signal (z-score),[24],-0.248
same,glycan array binding signal (z-score),[25],-0.254
same,glycan array binding signal (z-score),[26],-0.194
same,glycan array binding signal (z-score),[27],-0.22
